Cell count data for 16 compounds are collected here from the supplement of paper PMC4604168 (melanoma cell lines).

The other results are listed elsewhere or left out. Single values are uncertain, as repeats are few or missing.
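Also: cells treated in 1,536-well plates, then fixed and DAPI-stained, with nuclei counted from automated high-throughput microscope images.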

The test system of the first assay is A101D. Nature of the assay: cell count relative to DMSO control; melanoma cells; higher = more viable cells. The settings on record: library dose: standard library concentration; 72 h.
`NC(=O)c1ccc(N(C(N)=O)c2c(F)cccc2F)nc1-c1ccc(F)cc1F` + Cn1nnc2c(C(N)=O)ncn2c1=O [temozolomide] (first compound 2 µM, partner dose 10 µM) registered a cell count of 84.7%.

The compound `NC(=O)c1ccc(N(C(N)=O)c2c(F)cccc2F)nc1-c1ccc(F)cc1F` + COc1ccc(C2=N[C@@H](c3ccc(Cl)cc3)[C@@H](c3ccc(Cl)cc3)N2C(=O)N2CCNC(=O)C2)c(OC(C)C)c1 [Nutlin-3] (first compound 2 µM, partner dose 0.5 µM) gave a cell count of 73.6%.

`CCCCCCCCc1ccc(CCC(N)(CO)CO)cc1` [fingolimod] + CC(=O)c1c(C)c2cnc(Nc3ccc(N4CCNCC4)cn3)nc2n(C2CCCC2)c1=O [palbociclib] (first compound 10 µM, partner dose 0.2 µM) yielded a cell count of 8.76%.

As for `CCCCCCCCc1ccc(CCC(N)(CO)CO)cc1` [fingolimod] + NC1(c2ccc(-c3nc4ccn5c(=O)[nH]nc5c4cc3-c3ccccc3)cc2)CCC1 [MK2206] (first compound 10 µM, partner dose 2 µM), the cell count was 11.6%.

For the compound `CN(NC(=O)CC(=O)NN(C)C(=S)c1ccccc1)C(=S)c1ccccc1` + c1cc(-c2cnn3cc(-c4ccc(OCCN5CCCCC5)cc4)cnc23)ccn1 [Dorsomorphin] (first compound 0.03 µM, partner dose 2 µM), the cell count came out at 45.5%.

The subject of a further assay is A2058. The description is as above. The settings on record: library dose: standard library concentration; 72 h.
`NC(=O)c1ccc(N(C(N)=O)c2c(F)cccc2F)nc1-c1ccc(F)cc1F` + O=C(O)c1ccc2c(c1)nc(Nc1cccc(Cl)c1)c1ccncc12 [CX4945] (first compound 2 µM, partner dose 2 µM) gave a cell count of 70.3%.

For `CCCCCCCCc1ccc(CCC(N)(CO)CO)cc1` [fingolimod] + Nc1ncn([C@H]2C[C@H](O)[C@@H](CO)O2)c(=O)n1 [decitabine] (first compound 10 µM, partner dose 0.5 µM), the cell count was 7.8%.

Regarding `CCCCCCCCc1ccc(CCC(N)(CO)CO)cc1` [fingolimod] + Cn1c(=O)n(-c2ccc(C(C)(C)C#N)cc2)c2c3cc(-c4cnc5ccccc5c4)ccc3ncc21 [NVP-BEZ235] (first compound 10 µM, partner dose 0.02 µM), the cell count is 7.31%.

The compound `NC(=O)c1ccc(N(C(N)=O)c2c(F)cccc2F)nc1-c1ccc(F)cc1F` + C[C@@H]1CCN(C(=O)CC#N)C[C@@H]1N(C)c1ncnc2[nH]ccc12 [CP690550] (first compound 2 µM, partner dose 5 µM) yielded a cell count of 105%.

`CCCCCCCCc1ccc(CCC(N)(CO)CO)cc1` [fingolimod] + CN(C)S(=O)(=O)c1ccc2c(c1)/C(=C/c1cc3c([nH]1)CCCC3)C(=O)N2 [SU6656] (first compound 10 µM, partner dose 2 µM) had a cell count of 2.68%.

In turn, `CCCCCCCCc1ccc(CCC(N)(CO)CO)cc1` [fingolimod] + COc1ccc(Cl)c(Nc2nc3ccccc3nc2NS(=O)(=O)c2cccc(NC(=O)C(C)(C)N)c2)c1 [XL147] (first compound 10 µM, partner dose 4 µM) gave a cell count of 8.81%.

As to `CC(C)(C)c1cnc(CSc2cnc(NC(=O)C3CCNCC3)s2)o1` + CN(NC(=O)CC(=O)NN(C)C(=S)c1ccccc1)C(=S)c1ccccc1 [STA4783] (first compound 0.05 µM, partner dose 0.03 µM), the cell count was 8.6%.

The compound `CCCCCCCCc1ccc(CCC(N)(CO)CO)cc1` [fingolimod] + Nc1ccn([C@@H]2O[C@H](CO)[C@@H](O)C2(F)F)c(=O)n1 [gemcitabine] (first compound 10 µM, partner dose 0.002 µM) registered a cell count of 6.14%.

Compound `CCCCCCCCc1ccc(CCC(N)(CO)CO)cc1` [fingolimod] + CC(C)(C)c1cnc(CSc2cnc(NC(=O)C3CCNCC3)s2)o1 [SNS-032] (first compound 10 µM, partner dose 0.05 µM) came in with a cell count of 2.89%.

`CCCCCCCCc1ccc(CCC(N)(CO)CO)cc1` [fingolimod] + O=C(CCCCCCC(=O)Nc1ccccc1)NO [vorinostat] (first compound 10 µM, partner dose 0.4 µM) showed a cell count of 4.08%.

Regarding `NC(=O)c1ccc(N(C(N)=O)c2c(F)cccc2F)nc1-c1ccc(F)cc1F` + Clc1ccc(Nc2nnc(Cc3ccncc3)c3ccccc23)cc1 [vatalanib] (first compound 2 µM, partner dose 10 µM), the cell count was 84.4%.
